Measured values from PubChem BioAssay AID485364 (National Center for Advancing Translational Sciences (NCATS), 2010).
Among all 360,000 compounds or so, about 11,000 (3.1%) were called active. The inconclusive results got no clear call from the source; some entries with a clear call stand among them for comparison. Calls come from the whole dose curve; as a rule, active = well fitted inhibition curve with a large enough effect; inconclusive = small, poorly fitted or top-dose-only effect; inactive = no such curve, though single readings can be large or run the other way. No potency is given beside an inconclusive call; the fits are too rough.
% is set by controls: 0 for no effect and ±100 for the full control effect; potency is the fitted concentration of half-maximal effect; tags give direction and shape of the fitted curve.
Note: nearly all actives have a fitted effect of over 60% in size.

These compounds were tested against Schistosoma mansoni thioredoxin glutathione reductase (TGR) (UniProt Q962Y6) (assay: qHTS Assay for the Inhibitors of Schistosoma Mansoni Peroxiredoxins). Conditions: purified TGR, DTNB reduction, TNB absorbance 405 nm; activity change, negative = inhibition: at 114 µM (top of the series) unless noted.
Procedure, shortened: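 First, TGR (20 nM dispensed) and NADPH were mixed with compound. Second, a 15 min room-temperature incubation followed. Third, further NADPH and then DTNB were added to start the reaction. Finally, TNB absorbance was monitored kinetically.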
`O=C(c1scc2c1CCCC2)N1CCOCC1` was tested, and the Potency was inconclusive [inhibitor, partial curve].
`CCOC(=O)/C(=N\Nc1ccccc1Cl)N(C)C1CCCCC1` was tested, and the Potency was inconclusive [inhibitor, single point].
In the case of `Cc1nc2ccc(Cl)cc2nc(C)/c1=N\O`, the Potency is reported as inconclusive [inhibitor, partial curve].
For `C/C(=N/Nc1nc(C)c(C)s1)c1cccc([N+](=O)[O-])c1`, the Potency was inconclusive [inhibitor, partial curve].
In the case of `O=C(c1cnn2c(C(F)(F)F)cc(-c3ccco3)nc12)N1CCc2ccccc2C1`, the Potency is reported as active: 12.6 µM.
For `O=C(N/N=C/C(Br)=C/c1ccccc1)c1cccs1`, the “activity change, negative = inhibition” value was inactive: -19.9%.
In the case of `COc1cccc(CN(C)Cc2nc(Cc3ccccc3Cl)no2)c1`, the “activity change, negative = inhibition” value is reported as inactive: 19.3%.
For `COCCn1cc(C(=O)NCCN(C)C)c2c3ccccc3n(C)c2c1=O`, the Potency was inconclusive [inhibitor, partial curve].
For `O=C(Nc1ccc2nc(-c3ccco3)c(-c3ccco3)nc2c1)NC1CC1`, the Potency was inconclusive [inhibitor, full curve, poor fit].
`Cc1[nH]c(SCC(=O)Nc2cc(S(C)(=O)=O)ccc2Cl)nc1Cc1ccccc1` was tested, and the Potency was active: 3.55 µM.
In the case of `COc1ccc(NC(=O)c2nc(S(=O)(=O)Cc3ccc(C)cc3)ncc2Cl)cc1`, the Potency is reported as inconclusive [inhibitor, full curve].
For `CC1CCC(NC(=O)CCc2cn(Cc3ccc(F)cc3)c3ccccc23)CC1` (stereo not given), the “activity change, negative = inhibition” value was inactive: -0.948%.
With `CCOc1ccc(CNS(=O)(=O)c2ccc(-c3ccc(=O)[nH]n3)o2)cc1OC` the Potency was inconclusive [inhibitor, partial curve].
With `O=C(O)Cn1nc(N2CCN(c3ccccc3)CC2)ccc1=O` the Potency was inconclusive [inhibitor, single point].
With `O=C(NC(Cc1ccccc1)C(=O)O)/C(=C\c1ccc(Cl)cc1)NC(=O)c1ccco1` (stereo not given) the Potency was inconclusive [inhibitor, partial curve].
With `COc1ccc2cc(CN(Cc3ccco3)C(c3nnnn3C3CCCCC3)C(C)C)c(=O)[nH]c2c1` (stereo not given) the Potency was inconclusive [inhibitor, partial curve].
In the case of `Cc1ccc(-c2noc(CCC(=O)NCc3ccccc3CN3CCOCC3)n2)cc1`, the Potency is reported as inconclusive [inhibitor, full curve, poor fit].
For `Cc1ccccc1NC1=C/C(=N\S(=O)(=O)c2cccs2)c2ccccc2C1=O`, the Potency was inconclusive [inhibitor, partial curve].
With `Cc1cccc(CCNCc2c(C(=O)O)c(C)n(-c3ccccc3)c2C)c1` the Potency was inconclusive [inhibitor, partial curve].
In the case of `CCCCN=C1NN=C(c2cc3ccccc3o2)CS1`, the “activity change, negative = inhibition” value is reported as inactive: -3.37%.
In the case of `COc1cccc(NC(=O)c2oc3ccccc3c2NC(=O)Cc2cccc(C)c2)c1`, the “activity change, negative = inhibition” value is reported as inactive: -3.14%.
For `CC(C)C1Nc2ccc(S(N)(=O)=O)cc2C2C=CCC21` (stereo not given), the Potency was active: 12.6 µM.
For `COCCCNC(=S)N(CCCO)Cc1cc2cc3c(cc2[nH]c1=O)OCO3`, the Potency was inconclusive [inhibitor, single point].
For `COC(=O)CN(C)C(=O)CC1C(=O)NCCN1CC(C)(C)C` (stereo not given), the Potency was inconclusive [inhibitor, partial curve, poor fit].
For `O=c1oc2ccccc2c2c1C1O[C@](c3ccsc3)(Cc3c1ccc1ccccc31)O2`, the Potency was active: 8.91 µM.
For `CCc1ccc(N2C(=O)C3ON(c4ccccc4)C(c4ccco4)C3C2=O)cc1` (stereo not given), the Potency was inconclusive [inhibitor, partial curve].
For `CC(=O)NC(CSC(CC(=O)c1ccco1)c1ccc(C)cc1)C(=O)O` (stereo not given), the Potency was inconclusive [inhibitor, full curve].
`CCOc1cccc(C(=O)NC(=S)Nc2ccc3c(c2)OCCO3)c1` was tested, and the Potency was inconclusive [inhibitor, full curve].
With `CCOC(=O)c1c(C)c(C)n(Cc2cccc(OC)c2OC)c1C` the Potency was inconclusive [inhibitor, partial curve].
For `CCOc1ccc(-n2c(Cc3cc(=O)[nH]c(=O)[nH]3)nnc2SCC(=O)NC2CCCC2)cc1`, the Potency was inconclusive [inhibitor, partial curve].
For `CCCCn1c2ccc(F)cc2c2nnc(SCCN3CCOCC3)nc21`, the Potency was inconclusive [inhibitor, partial curve].
With `CCc1ccc(Cn2nnc(C(=O)Nc3ccc(C)cc3)c2N)cc1` the “activity change, negative = inhibition” value was inactive: 19.7%.
`Nc1c(C(=O)c2ccccc2)oc2ccccc12` was tested, and the “activity change, negative = inhibition” value was inactive: -0.243%.
In the case of `COc1ccc(N2C(=O)[C@@H]3[C@H](C2=O)[C@H]2c4ccccc4C=CN2[C@@H]3C(C)=O)cc1`, the Potency is reported as active: 39.8 µM.
With `CSC1=NC2(CCN(C(=O)NC3CCCCC3)CC2)N=C1c1ccc(C(C)(C)C)cc1` the Potency was inconclusive [inhibitor, partial curve, poor fit].
`C[C@@H]1CC=C[C@H]2[C@H]1C(=O)N(Cc1ccccc1)[C@H]2c1ccc(F)c(-c2ccc(N(C)C)cc2)c1` was tested, and the Potency was inconclusive [inhibitor, partial curve].
`CC1CCN(C(=O)c2cc(-c3ccc4c(c3)OCO4)on2)CC1` was tested, and the Potency was inconclusive [inhibitor, partial curve].
For `O=C(O)Cc1sc(NC2CCCCC2)nc1-c1ccc(Cl)cc1`, the Potency was inconclusive [inhibitor, partial curve].
`Cc1sc2nc3c4ccccc4c(NCc4ccco4)nn3c(=O)c2c1C` was tested, and the Potency was active: 50.1 µM.
`O=c1c2ccccc2nc2ccccn12` was tested, and the “activity change, negative = inhibition” value was inactive: -8.98%.
In the case of `O=C(Nc1ccc(Cl)cc1)C(Cl)C(=O)c1ccccc1` (stereo not given), the Potency is reported as inconclusive [inhibitor, single point].
For `O=C(Cc1ccccc1)NC(NNc1ccccc1)(C(F)(F)F)C(F)(F)F`, the Potency was inconclusive [inhibitor, full curve].
`O=C(CSc1nnc(-c2ccccc2)n1Cc1ccco1)Nc1ccc2c(c1)OCCO2` was tested, and the Potency was active: 35.5 µM.
`COc1ccc(CN2CCNC(=O)C2CC(=O)O)c(OC)c1` (stereo not given) was tested, and the Potency was active: 35.5 µM.
For `Cc1cc(C2(c3ccc(O)c(C)c3)OC(=O)c3ccccc32)ccc1O`, the Potency was inconclusive [inhibitor, partial curve].
For `COc1ccc(CCNC(=O)[C@H](CC(C)C)NC(=O)N2CCn3c2nc2ccccc23)cc1OC`, the “activity change, negative = inhibition” value was inactive: -1.48%.
With `CCCOc1ccccc1NC(=O)Nc1ccccc1Cl` the “activity change, negative = inhibition” value was inactive: -0.0297%.
`COC(=O)c1ccc(CN2CCN(CC=C(C)C)C(CCO)C2)cc1` (stereo not given) was tested, and the Potency was inconclusive [inhibitor, partial curve].
`Cc1cc(C(=O)NC2CCCN(Cc3ccc(Cl)cc3)C2)no1` (stereo not given) was tested, and the Potency was inconclusive [inhibitor, full curve, poor fit].
In the case of `CCCOc1cccc(C2C(C(=O)c3ccco3)=C(O)C(=O)N2CCCn2ccnc2)c1` (stereo not given), the Potency is reported as inconclusive [inhibitor, partial curve, poor fit].
With `CCCCNC(=O)Cn1cnc2ccc(S(=O)(=O)N3CCC(C)CC3)cc2c1=O` the Potency was inconclusive [inhibitor, single point].
For `CCOC(=O)c1c(C)[nH]c(C(=O)COC(=O)COc2ccc(OC)cc2)c1C`, the “activity change, negative = inhibition” value was inactive: 8.27%.
`CC1C/C(=C\c2cccnc2)C(=O)/C(=C/c2cccnc2)C1` (stereo not given) was tested, and the Potency was inconclusive [inhibitor, partial curve].
In the case of `Cc1nn(C)c(C)c1S(=O)(=O)N(CC(=O)NCc1ccco1)c1ccc(C(C)C)cc1`, the Potency is reported as inconclusive [inhibitor, partial curve].
`CCOc1ccccc1N1C(=O)CC(Sc2nccc(C)n2)C1=O` (stereo not given) was tested, and the Potency was inconclusive [inhibitor, partial curve].
With `CCOC(=O)C1(Cc2ccc(OC)cc2)CCN(C(=O)c2cccc3nccnc23)CC1` the “activity change, negative = inhibition” value was inactive: 3.75%.
With `O=C1NC(=O)N(c2cccc(F)c2)C(=O)/C1=C/c1ccc(N2CCOCC2)cc1` the Potency was inconclusive [inhibitor, full curve, poor fit].
`CCOC(=O)C1CCN(CC(=O)Nc2c(C(=O)OC)[nH]c3ccccc23)CC1` was tested, and the “activity change, negative = inhibition” value was inactive: 2.98%.
`CC(=O)c1ccc(S(=O)(=O)N2CCn3cccc3C2C)cc1` (stereo not given) was tested, and the Potency was active: 35.5 µM.
For `Cc1ccc(S(=O)(=O)N2CCCCC2)cc1NC(=O)C1CC(=O)N(Cc2ccccc2)C1` (stereo not given), the “activity change, negative = inhibition” value was inactive: -16.2%.
With `CCOc1ccc(CCNC(=O)Cn2ncn3nc(-c4ccc(OC)cc4)cc3c2=O)cc1OCC` the “activity change, negative = inhibition” value was inactive: 8.79%.
In the case of `O=C(O)CCSc1ccc2ccccc2n1`, the Potency is reported as inconclusive [inhibitor, full curve, poor fit].
For `CCN(CCNC(=O)CN(C)S(=O)(=O)c1cccc2nsnc12)c1ccccc1`, the “activity change, negative = inhibition” value was inactive: 4.2%.
In the case of `O=C1OCCN1c1c(-c2ccccc2)c(-c2cccs2)nc2c(-c3ccccc3)cccc12`, the Potency is reported as inconclusive [inhibitor, partial curve].
`O=C(O)CCc1ccc(-c2ccc(Br)cc2)n1Cc1ccco1` was tested, and the Potency was active: 50.1 µM.
In the case of `CN1CCC(=O)N([C@H](CSc2ccccc2)c2ccccc2)CC1`, the Potency is reported as inconclusive [inhibitor, partial curve].
In the case of `Cc1ccc(C2N=C(N)Nc3nc(=O)c4ccccc4n32)cc1` (stereo not given), the “activity change, negative = inhibition” value is reported as inactive: 0%.
`COc1ccccc1NC(=O)CSc1nnc(-c2ccco2)n1N` was tested, and the Potency was inconclusive [inhibitor, full curve].
`Cc1ccc(S(=O)(=O)/N=C(\N)Nc2nc(C)c3cc(C)ccc3n2)cc1` was tested, and the “activity change, negative = inhibition” value was inactive: 9.38%.
`COC(=O)c1nonc1NCn1nnc2ccccc21` was tested, and the Potency was inconclusive [inhibitor, partial curve].
